# PubChem BioAssay AID624296 (National Center for Advancing Translational Sciences (NCATS), 2012)
# Hit rate of the full screen: of about 350,000 compounds, about 9,900 (2.8%) were called active. This list was built around the results that the source calls inconclusive (neither active nor inactive); the mix of calls is not that of the screen. Calls follow the shape of the dose curve; as a rule, active = well fitted activation curve with a large enough effect; inconclusive = small, poorly fitted or top-dose-only effect; inactive = no such curve, though single readings can be large or run the other way. Potencies of inconclusive entries are left out as doubtful fits.
# Assay: A quantitative high throughput screen for small molecules that induce DNA re-replication in MCF 10a normal breast cells. Also: nearly all actives have a fitted effect of over 50% in size.
# Conditions: MCF 10A DNA re-replication, Hoechst nuclear intensity, 48 h; series mostly up to 46.1 µM
# Potency is read from the fitted curve at half-maximal effect; tags tell the direction and shape of the fitted curve.
row,SMILES,Potency
1,COc1ccc(COn2c(=O)c(C)[n+]([O-])c3ccccc32)cc1OC,"inconclusive [activator, single point]"
2,O=C1N(Cc2ccc(F)cc2)CCN1c1ccc(F)cc1,inactive
3,O=S(=O)(Nc1cc(Cl)ccc1-n1cncn1)c1cc(Br)ccc1Br,"inconclusive [activator, single point]"
4,O=C(CN1C(=O)NC2(CCCC2)C1=O)Nc1ccc(S(=O)(=O)N2CCOCC2)cc1,"inconclusive [activator, partial curve, poor fit]"
5,C=CCn1c(O)c(C2=c3ccccc3=NC2=O)c2ccccc21,"inconclusive [activator, single point]"
6,O=C(NNC(=O)C(O)(c1ccccc1)c1ccccc1)C1CC1,inactive
7,CC(=O)N1c2ccc(S(=O)(=O)N(C)CC(=O)Nc3ccccc3C)cc2CC1C (centres undefined),inactive
8,O=C(O)c1cccc(CSc2nc(-c3ccc(Cl)cc3)cc(C(F)(F)F)n2)c1,"inconclusive [activator, partial curve, poor fit]"
9,O=C(NCc1cccc(Br)c1)C1CC2Cn3c(nc4ccccc43)C2N1c1ccccc1 (centres undefined),inactive
10,O=c1c(O)c(-c2cccs2)oc2ccccc12,"inconclusive [activator, single point]"
11,O=C(NC(=S)Nc1ccc(N2CCOCC2)c(Cl)c1)c1cncc(Br)c1,inactive
12,CCC(C(=O)OCC(=O)Nc1cc(Cl)cc(Cl)c1)c1ccccc1 (centres undefined),"inconclusive [activator, single point]"
13,Clc1cccc(/C(Cc2nc3ccccc3[nH]2)=N\Nc2ccccc2)c1,"inconclusive [activator, single point]"
14,CCNc1nc(NC(C)C)nc(SCCOc2ccc(C)cc2)n1,"inconclusive [activator, single point]"
15,COc1cc(-c2nc(-c3ccccc3)c(-c3ccc(F)cc3)[nH]2)cc2c1OCO2,"inconclusive [activator, full curve, poor fit]"
16,CCn1cnc2cc(NCc3ccc(N(C)C)cc3)ccc21,"inconclusive [activator, single point]"
17,Cc1ccc(COn2c(-c3ccc(Cl)cc3)nc3ccc([N+](=O)[O-])cc32)cc1,"inconclusive [activator, full curve]"
18,C=CCn1c(SCc2nc3c(c(=O)[nH]c(=O)n3CCCC)n2CCC)nnc1-c1ccccc1,inactive
19,FC(F)(F)c1cccc(Cc2noc(CN3CCC(c4ccncc4)CC3)n2)c1,inactive
